Results are given in words; binding and its absence hold for the method and conditions named. Some entries that bind do so weakly or less than the wild type.
T1: Arabidopsis ELP4 (Arabidopsis thaliana) (UniProt Q9C778)
T1 sequence: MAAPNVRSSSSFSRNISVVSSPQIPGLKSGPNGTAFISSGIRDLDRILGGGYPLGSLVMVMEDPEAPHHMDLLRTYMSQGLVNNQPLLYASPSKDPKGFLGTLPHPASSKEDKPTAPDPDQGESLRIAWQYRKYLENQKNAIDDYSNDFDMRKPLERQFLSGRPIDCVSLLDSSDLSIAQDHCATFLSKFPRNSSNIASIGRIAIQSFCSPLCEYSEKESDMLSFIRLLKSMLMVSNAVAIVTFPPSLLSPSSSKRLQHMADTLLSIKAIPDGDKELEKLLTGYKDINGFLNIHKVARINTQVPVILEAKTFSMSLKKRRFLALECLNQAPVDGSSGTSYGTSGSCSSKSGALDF

T2: Arabidopsis ELP6 (Arabidopsis thaliana) (UniProt Q8L9Y2)
T2 sequence: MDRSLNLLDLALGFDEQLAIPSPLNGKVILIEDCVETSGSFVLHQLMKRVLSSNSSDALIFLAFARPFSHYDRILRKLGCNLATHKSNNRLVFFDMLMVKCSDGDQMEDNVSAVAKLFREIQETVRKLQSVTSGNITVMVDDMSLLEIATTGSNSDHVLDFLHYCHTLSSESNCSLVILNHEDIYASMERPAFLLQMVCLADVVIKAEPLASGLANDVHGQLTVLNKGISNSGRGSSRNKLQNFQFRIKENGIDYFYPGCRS

B1: Arabidopsis ELP6 (protein, UniProt Q8L9Y2 1-262)
chain: T2 sequence
B2: Arabidopsis ELP5 (protein, UniProt F4IQJ2 1-374)
chain: MAESIFRKLRDGGEEGELAPALTIEETVASPFGLDVSGYLLTNLSSSILAGKSSSQGLVLITFSRSPSFYLQLLKQKGIVVSSSSKWIRILDCYTDPLGWIDQSSTSFSEGSSLIKLHKCVSDLKKLFSSIIEAGRELVGTGKTRFCVAIDSVNELLRHSAMPLVSGLLTDLRSHAQISSVFWSLNTDLHQEKVTNALEYISTMKANLEPLCPSSDGQRNALENLFSVHQDFGKGRFHVRFKLRKGRVRVMSEEYHVDQSGINFSPISSVDTVIAATKSLLPKVQFNLQLSEKERVEKEKVVLPFEHQDDGKSNEIYDGRRSLVDGKIETTPLSSMELQTDVVSSGKGGEIIYFRDSDDEHPDSDEDPDDDLDI
B3: Arabidopsis ELP3 (protein, UniProt Q93ZR1 1-565)
chain: MATAVVMNGELKKQPRPGKGGYQGRGLTEEEARVRAISEIVSTMIERSHRNENVDLNAIKTAACRKYGLARAPKLVEMIAALPDSERETLLPKLRAKPVRTASGIAVVAVMSKPHRCPHIATTGNICVYCPGGPDSDFEYSTQSYTGYEPTSMRAIRARYNPYVQARSRIDQLKRLGHSVDKVEFILMGGTFMSLPAEYRDFFIRNLHDALSGHTSANVEEAVAYSEHSATKCIGMTIETRPDYCLGPHLRQMLIYGCTRLEIGVQSTYEDVARDTNRGHTVAAVADCFCLAKDAGFKVVAHMMPDLPNVGVERDMESFKEFFESPSFRADGLKIYPTLVIRGTGLYELWKTGRYRNYPPEQLVDIVARILSMVPPWTRVYRVQRDIPMPLVTSGVEKGNLRELALARMDDLGLKCRDVRTREAGIQDIHHKIKPEQVELVRRDYTANEGWETFLSYEDTRQDILVGLLRLRKCGKNVTCPELMGKCSVVRELHVYGTAVPVHGRDADKLQHQGYGTLLMEEAERIARREHRSNKIGVISGVGTRHYYRKLGYELEGPYMVKHLL
B4: Deformed Roots and Leaves 1 (DRL1) (protein, UniProt Q9LMH0 1-302)
chain: MALVVICGQPCSGKSIAAVTLAETLKESETKQSVRIIDEASFHLDRNQNYANMPAEKNLRGKLRSDVDRSVSTGEIVIVDSLNSIKGYRYELWCIARAAGIRYCVVYCDVDEAHCRQWNKERSDRGEDGYDDGIFEDLVRRFEKPERRNRWDSPLFELYPSREVIDKSSPVILEAVTYLTKTVDSKTQDVRILQPSIATQAARFSEANSLYELDRATQEIINAIVEQQSLGAAISRVTLGNELPPIEICRPIGLPELRRLRRTFVKLMGQSSLSGPPLPTDADSAKRRFVDYLNREFGGNNA

Tests used:
[1] = target: T1, Arabidopsis ELP4 (Arabidopsis thaliana); assay: two-hybrid; β-galactosidase (X-gal) assay of co-transformed yeast grown on SD/-Leu-Trp-His+3-AT with 500 μg/mL X-gal, 30 °C
[2] = target: T2, Arabidopsis ELP6 (Arabidopsis thaliana); assay: two-hybrid; GAL4-based ProQuest system, yeast MaV203; bait in pDEST32 (BD), prey in pDEST22 (AD); growth on SD/-Leu/-Trp/-His with 10 mM 3-AT
[3] = target: T1, Arabidopsis ELP4 (Arabidopsis thaliana); assay: as above
[4] = target: T2, Arabidopsis ELP6 (Arabidopsis thaliana); assay: two-hybrid; β-galactosidase (X-gal) assay of co-transformed yeast grown on SD/-Leu-Trp-His+3-AT with 500 μg/mL X-gal, 30 °C

Row | Binder | binding [1] | binding [2] | binding [3] | binding [4]
1 | B1 | binds | no binding | binds | –
2 | B2 | – | binds | no binding | binds
3 | B3 | – | no binding | no binding | –
4 | B4 | – | no binding | no binding | –

Source: article PMC11050213
